Measured values published in paper PMC11110689.
Results are given in words; binding and its absence hold for the method and conditions named. For some assays here: Binding seen in cells or lysates may run through a third protein. Some binding calls cover weakened binding; strength is not graded here. For some assays here: Sequences can lack the tags named with a protein. Values belong to the binder of their own block, whether it stands above or below them.

How the values were obtained:
[1] = biological target: factor inhibiting HIF (FIH), V5-tagged (FIH-V5), Q9NWT6; test: immunoblot of a denaturation-resistant (SDS-PAGE) complex; HEK293 cells transiently co-transfected, normoxia; complex seen at the summed molecular weight; also with FG-4592 (0.1 mM), DM-NOFD (1 mM) or MG132 (10 μM), and with lysates treated with DTT or β-mercaptoethanol, 5 min at 95 °C; shows only complexes that resist denaturation; settings: remark: other sources report otherwise
[2] = biological target: FIH-IκBβ oxomer (FIH-V5 with IκBβ-FLAG) (UniProt Q9NWT6); test: co-IP; IκBβ-FLAG expressed in HEK293 cells alone or with FIH-V5; immunoprecipitated with anti-V5 or anti-FLAG antibodies, immunoblot
[3] = biological target: T1, NF-κB inhibitor β (IκBβ), FLAG-tagged (IκBβ-FLAG) (human) (UniProt Q15653); test: as above
T1 sequence: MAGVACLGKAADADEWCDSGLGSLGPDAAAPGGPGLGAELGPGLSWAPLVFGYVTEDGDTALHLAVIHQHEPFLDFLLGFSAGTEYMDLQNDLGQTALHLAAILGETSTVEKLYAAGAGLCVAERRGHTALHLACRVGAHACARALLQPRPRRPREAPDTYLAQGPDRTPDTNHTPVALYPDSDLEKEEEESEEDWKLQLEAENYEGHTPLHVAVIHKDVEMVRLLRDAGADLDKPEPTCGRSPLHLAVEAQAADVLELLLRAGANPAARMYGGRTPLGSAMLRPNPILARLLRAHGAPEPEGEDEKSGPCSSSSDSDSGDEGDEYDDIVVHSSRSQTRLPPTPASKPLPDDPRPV

[4] = biological target: FIH H199A (UniProt Q9NWT6); test: immunoblot of a denaturation-resistant (SDS-PAGE) complex; HEK293 cells transiently co-transfected, normoxia; complex seen at the summed molecular weight; also with FG-4592 (0.1 mM), DM-NOFD (1 mM) or MG132 (10 μM), and with lysates treated with DTT or β-mercaptoethanol, 5 min at 95 °C; shows only complexes that resist denaturation
[5] = biological target: T2, FIH L340R (UniProt Q9NWT6); test: as above
T2 sequence: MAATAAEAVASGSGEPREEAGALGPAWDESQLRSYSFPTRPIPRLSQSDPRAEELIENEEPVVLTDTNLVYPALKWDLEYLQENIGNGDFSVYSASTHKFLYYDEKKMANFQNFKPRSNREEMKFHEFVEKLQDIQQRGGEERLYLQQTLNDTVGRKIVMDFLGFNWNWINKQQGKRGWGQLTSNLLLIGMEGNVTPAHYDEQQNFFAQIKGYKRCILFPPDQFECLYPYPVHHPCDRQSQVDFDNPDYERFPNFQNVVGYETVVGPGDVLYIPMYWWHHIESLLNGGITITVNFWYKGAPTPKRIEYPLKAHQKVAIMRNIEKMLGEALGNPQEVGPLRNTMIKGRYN

binding [1]: no binding
B1: IκBα, P25963 1-317 (protein)
chain: MFQAAERPQEWAMEGPRDGLKKERLLDDRHDSGLDSMKDEEYEQMVKELQEIRLEPQEVPRGSEPWKQQLTEDGDSFLHLAIIHEEKALTMEVIRQVKGDLAFLNFQNNLQQTPLHLAVITNQPEIAEALLGAGCDPELRDFRGNTPLHLACEQGCLASVGVLTQSCTTPHLHSILKATNYNGHTCLHLASIHGYLGIVELLVSLGADVNAQEPCNGRTALHLAVDLQNPDLVSLLLKCGADVNRVTYQGYSPYQLTWGRPSTRIQQQLGQLTLENLQMLPESEDEESYDTESEFTEFTEDELPYDDCVFGGQRLTL

binding [2]: no binding | binding [3]: binds
B2: NF-κB subunit c-Rel (protein, UniProt Q04864 1-619)
chain: MASGAYNPYIEIIEQPRQRGMRFRYKCEGRSAGSIPGEHSTDNNRTYPSIQIMNYYGKGKVRITLVTKNDPYKPHPHDLVGKDCRDGYYEAEFGQERRPLFFQNLGIRCVKKKEVKEAIITRIKAGINPFNVPEKQLNDIEDCDLNVVRLCFQVFLPDEHGNLTTALPPVVSNPIYDNRAPNTAELRICRVNKNCGSVRGGDEIFLLCDKVQKDDIEVRFVLNDWEAKGIFSQADVHRQVAIVFKTPPYCKAITEPVTVKMQLRRPSDQEVSESMDFRYLPDEKDTYGNKAKKQKTTLLFQKLCQDHVETGFRHVDQDGLELLTSGDPPTLASQSAGITVNFPERPRPGLLGSIGEGRYFKKEPNLFSHDAVVREMPTGVSSQAESYYPSPGPISSGLSHHASMAPLPSSSWSSVAHPTPRSGNTNPLSSFSTRTLPSNSQGIPPFLRIPVGNDLNASNACIYNNADDIVGMEASSMPSADLYGISDPNMLSNCSVNMMTTSSDSMGETDNPRLLSMNLENPSCNSVLDPRDLRQLHQMSSSSMSAGANSNTTVFVSQSDAFEGSDFSCADNSMINESGPSNSTNPNSHGFVQDSQYSGIGSMQNEQLSDSFPYEFFQV

binding [4]: no binding | binding [5]: no binding
B3: NF-κB inhibitor β (IκBβ), FLAG-tagged (IκBβ-FLAG) (protein, UniProt Q15653 1-356)
chain: T1 sequence
